In all, about 220,000 compounds went through this assay and about 16,000 (7.3%) were called active. Inconclusive results, whose numbers are uncertain, are shown with a selection of clear calls. Calls follow the shape of the dose curve; as a rule, active = well fitted inhibition curve with a large enough effect (not every such curve was filed as active); inconclusive = small, poorly fitted or top-dose-only effect, or another doubt; inactive = no such curve, though single readings can be large or run the other way. Where the call is inconclusive, the potency comes from a doubtful curve fit.
Biological target: Aldehyde dehydrogenase 1A1 (Homo sapiens) (UniProt P00352)
Assay: qHTS Assay for Inhibitors of Aldehyde Dehydrogenase 1 (ALDH1A1);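 as to activity, negative = inhibition: plate controls were no enzyme wells and a reference inhibitor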
Conditions: Purified ALDH1A1, NADH fluorescence, propionaldehyde substrate; series mostly up to 75.3 µM; activity, negative = inhibition: at the top concentration
Potency is read from the fitted curve at half-maximal effect; tags tell the direction and shape of the fitted curve.

UniProt P00352, sequence (P00352 whole entry, looked up): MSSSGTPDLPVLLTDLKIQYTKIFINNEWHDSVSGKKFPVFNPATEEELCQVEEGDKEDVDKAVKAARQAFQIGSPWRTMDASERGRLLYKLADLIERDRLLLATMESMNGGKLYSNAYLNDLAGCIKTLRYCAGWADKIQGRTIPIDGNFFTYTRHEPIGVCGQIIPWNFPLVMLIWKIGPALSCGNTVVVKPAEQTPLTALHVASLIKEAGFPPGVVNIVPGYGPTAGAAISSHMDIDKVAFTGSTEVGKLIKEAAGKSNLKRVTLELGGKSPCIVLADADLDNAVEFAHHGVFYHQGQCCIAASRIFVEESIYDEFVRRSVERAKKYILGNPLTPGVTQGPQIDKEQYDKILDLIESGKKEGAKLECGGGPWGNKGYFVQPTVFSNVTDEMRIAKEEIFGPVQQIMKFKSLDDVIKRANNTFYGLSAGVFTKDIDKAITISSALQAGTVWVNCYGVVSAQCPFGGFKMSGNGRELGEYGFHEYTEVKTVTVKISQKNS

Potency, inconclusive:
N#CC1=C(N)OC2=C(CC/C2=C\c2ccccc2)C1c1ccccc1 (stereo not drawn) 11.2 µM [inhibitor, partial curve], COc1ccc(N2C(=O)CCC(C(=O)NCCN3CCOCC3)C2c2ccc(OC)c(OC)c2)cc1 (stereo not drawn) 39.8 µM [inhibitor, partial curve, poor fit], CCCCCCCCCCS(=O)(=O)N/N=C/c1ccc([N+](=O)[O-])cc1 35.5 µM [inhibitor, single point], O=C(c1ccccc1)N1CCN(C(=O)c2cc3ccccc3o2)CC1 22.4 µM [inhibitor, single point], CC(=O)Nc1ccc(-c2csc(NCc3ccccc3)n2)cc1 39.8 µM [inhibitor, single point], C#Cc1ccc(C(=O)NCc2ccc(N3CCCC3=O)cc2)cc1 39.8 µM [inhibitor, single point], COC(=O)c1[nH]c2cc(OC)ccc2c1NC(=O)CCN1CCN(c2cccc(C)c2C)CC1 44.7 µM [inhibitor, single point], CCOC(=O)N1CCN(Cc2c(F)cccc2Cl)CC1 28.2 µM [inhibitor, partial curve], COc1cc(/C=N/NC(=O)C(Cc2c[nH]c3ccccc23)NC(=O)OCC(C)C)cc([N+](=O)[O-])c1OCc1ccccc1 (stereo not drawn) 31.6 µM [inhibitor, single point], Cc1cc(C)cc(O)c1 39.8 µM [inhibitor, single point], Nc1c(C(=O)Nc2ccc(F)cc2)sc2nc(-c3ccco3)ccc12 14.1 µM [inhibitor, partial curve], O=C(CC1CCCC1)OCn1nnc2ccccc2c1=O 35.5 µM [inhibitor, single point], O=C(CCc1ccccc1)NC(=S)Nc1cccc(Br)c1 39.8 µM [inhibitor, single point], C=CCSC1=C(C#N)C(c2ccccc2OCC)CC(=O)N1 (stereo not drawn) 39.8 µM [inhibitor, single point], COc1ccc(CCN2CC3=C(C2=O)C(c2ccccc2)NC(=O)N3C)cc1OC (stereo not drawn) 25.1 µM [inhibitor, single point], CSc1nc(N(C)CCO)c2sc3nc(-c4ccco4)c4c(c3c2n1)CCC4 5.01 µM [inhibitor, full curve], CCc1ccc(C(=O)/C=C2\Sc3ccccc3NC2=O)cc1 7.94 µM [inhibitor, full curve], C/C(CC(=O)NCc1ccc(Cl)cc1)=N\NC(=O)Cc1ccccc1 44.7 µM [inhibitor, single point], CCCCc1nc2sc3c(SCCN(C)C)ncnc3c2c2c1CCC2 22.4 µM [inhibitor, single point], O=S(=O)(NC1c2cccc3cccc(c23)C1N1CCN(CCO)CC1)c1ccccc1 (stereo not drawn) 35.5 µM [inhibitor, single point], Cc1nc2c(c(=O)n1Cc1ccccc1Cl)c1nc3ccccc3nc1n2Cc1ccco1 25.1 µM [inhibitor, partial curve], CC(C)c1ccc(NC(=O)c2cc(S(=O)(=O)NCC3COc4ccccc4O3)ccc2F)cc1 (stereo not drawn) 39.8 µM [inhibitor, single point], COc1cc(/C=C2\SC(c3ccc(C)cc3)=NC2=O)cc(OC)c1OC 12.6 µM [inhibitor, partial curve], Nn1cnnc1N/N=C/c1ccc(Cl)c([N+](=O)[O-])c1 35.5 µM [inhibitor, single point], COC(=O)C1=C(C)N(Cc2ccc(C)cc2)C(=O)/C1=C\c1ccc(O)c(OC)c1 25.1 µM [inhibitor, single point], COC(=O)N1C2=C(c3ccccc3[C@@H]1CC(=O)Nc1ccc(Br)cc1)[C@@H]1C(=O)N(c3ccccc3)C(=O)[C@@H]1[C@H](C)C2 3.16 µM [inhibitor, single point], CCOC(=O)c1cnc2cc(Cl)c(OC)cc2c1NCC1CCCO1 (stereo not drawn) 25.1 µM [inhibitor, partial curve], COc1ccc2c(Cl)c(C(=O)NN3CCN(C)CC3)sc2c1 39.8 µM [inhibitor, single point], Cc1cccc(NC(=O)CCN2C(=O)C3C4C=CC(C4)C3C2=O)c1 (stereo not drawn) 39.8 µM [inhibitor, single point], Cn1c(N2CCCCC2)nc2c1c(=O)[nH]c(=O)n2C 28.2 µM [inhibitor, partial curve], Cc1c(Cl)cccc1NC(=S)N(Cc1ccccc1)Cc1cccnc1 39.8 µM [inhibitor, single point], CN1CCN(c2ccccc2NC(=O)c2cccc(OCc3ccccc3)c2)CC1 28.2 µM [inhibitor, partial curve], O=S(=O)(/N=C(/Nc1ccccc1)c1ccccc1)c1cccs1 20 µM [inhibitor, partial curve], CS(=O)(=O)N(Cc1ccccc1)c1ccccc1C(=O)Nc1ccccc1C(=O)NCc1ccco1 25.1 µM [inhibitor, single point], CCCOc1ccc(-c2nnn(CC(=O)N3CCC(C)CC3)n2)cc1 39.8 µM [inhibitor, single point], COc1cc(OC)cc(C(=O)NC(=S)Nc2ccc(NC(=O)c3ccco3)cc2)c1 39.8 µM [inhibitor, single point], CC(C)(C)C1(O)CC(C(F)(F)F)=NN1C(=O)Cc1ccc([N+](=O)[O-])cc1 (stereo not drawn) 39.8 µM [inhibitor, single point], COc1cccc(/C=N\NC(=O)c2ccc(Cn3cc(Br)c([N+](=O)[O-])n3)o2)c1O 39.8 µM [inhibitor, single point]

Potency, active:
CCOC(=O)N1CCN(C(=O)COc2cccc3c2CCN(Cc2ccccc2C)C3=O)CC1 25.1 µM, C=CCn1c(SCC(N)=O)nc2scc(-c3ccc(C)o3)c2c1=O 10 µM, O=C(CNc1ccc2ccccc2c1)N/N=C/c1cc2ccccc2nc1Cl 22.4 µM, COc1ccc(Cl)cc1C(=O)NC(=S)Nc1cc(-c2nc3ccccc3[nH]2)ccc1C 3.98 µM, COC(=O)c1ccc(-c2noc(CN(C)CCC3CCCCO3)n2)cc1 (stereo not drawn) 8.91 µM, CCCCCC(=O)NC(Cc1ccc(OC)c([N+](=O)[O-])c1)C(=O)O (stereo not drawn) 12.6 µM, COc1ccccc1NC(=O)C1=C(C)Nc2nc(CCCO)nn2C1c1ccc2c(c1)OCO2 (stereo not drawn) 14.1 µM, Cc1ccc(S(=O)(=O)NCCSc2nnnn2-c2cc(C)ccc2C)cc1 0.891 µM, O=C(CCNc1ccccc1)c1ccc2c(c1)OCO2 0.891 µM, CC1=C(C(=O)N(C)C)C(c2ccc(C)s2)NC(=S)N1 (stereo not drawn) 25.1 µM, O=C1C2C3C=CC(C3)C2C(=O)N1/N=C/c1ccc(-c2ccccc2[N+](=O)[O-])o1 (stereo not drawn) 2.24 µM, COc1ccc2c(c1OC)C(=O)OC2CC(=O)c1ccc(O)cc1 (stereo not drawn) 28.2 µM, O=C(Cc1ccccc1)Nc1nc2ccccc2[nH]1 17.8 µM, N#CC1=C2SCN(Cc3ccccc3)CN2C(=O)CC1c1cccs1 (stereo not drawn) 11.2 µM, N#CC1=C(N)N(c2ccc(Oc3ccccc3)cc2)C(=O)C1 25.1 µM

activity, negative = inhibition, inactive:
CC(C)[C@@H]1NC(=O)c2cc([N+](=O)[O-])cc(F)c2NCCC[C@@H](C(N)=O)NC(=O)[C@H](CO)NC1=O -5.73%, COc1ccc(OC)c(Nc2nc(-c3sc(NC(=O)c4ccccc4)nc3C)cs2)c1 -7.7%, COc1ccc(S(=O)(=O)/N=C2/C=CC(=O)C(C)=C2C)cc1 -10.7%, O=C(c1ccco1)N1CCN(C(=O)N2CCCC2)CC1 4.99%, CCCCNC(=O)C(=O)c1ccccc1NC(C)=O -5.94%, Cc1cccc(C(=O)NN2C(=O)C3C(c4ccccc4)C=CC(c4ccccc4)C3C2=O)c1 (stereo not drawn) 1.96%, COc1cccc(Oc2nc(-c3ccncc3)nc3ccccc23)c1 -9.96%, Nc1nnc(-c2cn(-c3ccccc3)nc2-c2ccc(Cl)cc2)o1 -8.46%, COC(=O)[C@@H]1C[C@@]2(O)[C@@H](O)[C@@H](O)[C@@H](O)C[C@H]2N1Cc1ccc(C(F)(F)F)cc1 -4.22%, CC(C)NC(=O)COC(=O)Cn1[nH]c(=O)c2ccccc2c1=O 9.7%, CCOC(=O)c1c(NC(=O)CC2Nc3ccccc3NC2=O)sc(C)c1C (stereo not drawn) 8.8%, Cc1ccc(OCC(=O)Nc2ccc(N(C)C)cc2)cc1 -2.69%, Cc1c(Cl)ccc2c(C(=O)NCCN3CCCCC3)cc(-c3ccccn3)nc12 1.6%, COc1ccc(CNS(=O)(=O)c2ccc3c(c2)CCN3C(=O)C2CC2)cc1 11.1%, CCN(CC)CCn1c(=S)[nH]c2cc3c(cc2c1=O)OCO3 9.83%, COc1cc2c(cc1NC(=O)COC(=O)CNS(=O)(=O)c1ccc(C)cc1)oc1ccccc12 2.12%, COc1cc2c(cc1NC(=O)CSc1nnc(COc3ccc(Cl)cc3)n1C)oc1ccccc12 9.64%, CC(C)Cn1cc(C(=O)N2CCOCC2)c2c3ccccc3n(C)c2c1=O 9.73%, N#CC(c1ccc(Cl)cc1)(c1ncc(C(F)(F)F)cc1Cl)N1CCOCC1 (stereo not drawn) -2.32%, CC(=O)c1cc(-c2ccccc2)n(CC(=O)NC2CCCCC2)c1C 7%
